Source: the supplement of paper PMC3334620
In all, about 33,000 sequences were measured (“E-score (-0.5 to 0.5)”: median about -0.011, highest 2% from about 0.28 on). Some of the results follow.

Molecular target: T1, Gcr1 (UniProt P07261)
T1 sequence: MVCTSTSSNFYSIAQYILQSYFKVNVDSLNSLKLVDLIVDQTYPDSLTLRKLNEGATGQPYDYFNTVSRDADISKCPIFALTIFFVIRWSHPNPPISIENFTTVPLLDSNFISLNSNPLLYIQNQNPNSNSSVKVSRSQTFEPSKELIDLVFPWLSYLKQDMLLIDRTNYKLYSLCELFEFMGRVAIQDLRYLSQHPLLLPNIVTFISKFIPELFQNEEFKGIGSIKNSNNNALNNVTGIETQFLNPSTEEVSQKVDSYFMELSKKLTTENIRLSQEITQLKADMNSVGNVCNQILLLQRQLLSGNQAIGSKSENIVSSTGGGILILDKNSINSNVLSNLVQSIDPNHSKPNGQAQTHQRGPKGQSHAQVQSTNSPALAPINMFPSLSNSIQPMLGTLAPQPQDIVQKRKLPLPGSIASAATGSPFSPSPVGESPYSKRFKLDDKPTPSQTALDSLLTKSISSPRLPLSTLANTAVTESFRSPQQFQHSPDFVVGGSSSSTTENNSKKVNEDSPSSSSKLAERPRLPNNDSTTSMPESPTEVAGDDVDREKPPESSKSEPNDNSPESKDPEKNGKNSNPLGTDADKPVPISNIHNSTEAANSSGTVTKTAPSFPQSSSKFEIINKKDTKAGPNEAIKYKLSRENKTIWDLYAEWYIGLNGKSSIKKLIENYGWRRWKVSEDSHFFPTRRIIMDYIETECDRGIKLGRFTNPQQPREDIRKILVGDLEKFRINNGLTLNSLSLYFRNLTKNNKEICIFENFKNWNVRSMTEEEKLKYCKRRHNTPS
Assay: PBM E-score (8-mer binding enrichment) (E-score (-0.5 to 0.5)); higher = stronger / more preferred TF binding; most listed sequences are background and not binding sites
Conditions: protein concentration: 100 nM; construct: GST-full length
In short: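 The E-score, a modified Wilcoxon-Mann-Whitney statistic, was computed by the Universal PBM Analysis Suite for every ungapped eight-base word pooled with its reverse complement. Scans behind it were normalised with masliner after bound GST-tagged yeast transcription factors were detected with fluorescent anti-GST. The proteins, at about 100-200 nM, had been applied to universal all-10-mer Agilent arrays made double-stranded by primer extension.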

Sequence	PBM E-score
CGTGGTTA	-0.119
ATGTTCAA	0.0396
GAGGTATA	-0.0396
TATATGAA	0.0517
AGTATCTG	0.113
ACTGTTGA	-0.0529
ATAGTAGA	0.191
ACGATGCA	0.0214
ATCATCGC	-0.165
CCTTTGTC	0.0286
CTACAGAA	0.0747
ATGCCCTC	-0.0918
GAGCTCGA	-0.0739
CTCCGAAG	0.126
AACGGCAC	0.0232
CAGAAATA	0.156
AGACGACG	-0.0698
ATCCAGTA	0.277
GCATGCCC	-0.223
GGGTTGAC	-0.00188
AAAAGGAG	-0.00968
CCCTCACG	-0.132
AATCGTGG	-0.0587
AATTTTTG	0.1
TCCGGGAA	0.207

Sequence	PBM E-score
CAGAGATC	-0.135
TAGGCACA	-0.179
GTGATTTA	0.178
CCCTTGTA	-0.104
GCTCGCAC	0.0418
AAGTCAAA	0.0937
AAGCACGG	-0.152
TGAGGACA	-0.117
CCGCTTAG	-0.108
CCCACAGG	-0.0129
AAACATTA	0.0249
CCTACAGC	-0.216
TCTAACCA	-0.153
CGGCCGGA	-0.181
AGGGAACA	-0.173
AACTAAAG	0.0707
ACTGAGAT	-0.0998
CTTGTCGC	0.122
TATCGAAA	0.0143
TACGCATA	-0.0827
ACGACGAT	0.0839
CGAGCACC	0.243
CAGGATTA	0.125
GTATCAAC	0.0405
ATCAAGGG	-0.15

Sequence	PBM E-score
CTTGGGCC	-0.117
AAATATGG	0.106
CTCTCGCA	0.0115
CCCAAGAC	-0.166
AACTGAAA	0.135
AGACCTTC	-0.198
GCCCATCA	0.00662
CCTGACTC	0.00419
CATCTTCA	0.062
CAGAGATG	0.0113
CCAGCGCG	-0.042
CATCGGTC	-0.231
GCAAGAAC	-0.137
TCAATTGA	0.00453
GCGATCCC	0.0838
GCGCCCGC	0.315
AGCACCCT	0.277
GTTATGTA	-0.0225
ACTCAGGC	0.121
CCTGTCAA	0.177
CTGAATGC	-0.0265
AGCGCCAG	-0.0354
GGCATGGA	-0.223
ATCCATTG	0.0773
GCTCGGGA	-0.0298

Sequence	PBM E-score
CGGGAGAC	0.036
AACATATC	-0.0354
ATCCCGTG	0.0951
TCCAGGGA	-0.0395
ACAGGGCG	0.213
CACACTCC	-0.0523
AAGGGCGA	-0.255
AGGAGCTG	-0.0949
AGTGAAAG	0.148
ATTCTCGC	-0.159
CAAGGTCA	-0.24
CCATGCCA	-0.00115
AAGTAATC	-0.0951
GATACGTA	0.0643
ATCTTTCC	-0.0641
ATGTGTGA	-0.0163
CCCGTTTC	-0.00282
AGAAAGAG	0.0424
ATCTTGGC	0.0645
GAACAGTC	-0.311
ATGAACAT	-0.163
CAAACTAG	0.0123
CAGGATAG	0.189
AGGTGCCC	0.395
CATCGCCC	-0.251

Sequence	PBM E-score
CTAAACTA	0.038
CGGTTACA	-0.0328
CGTGATAG	-0.0912
CATTACCC	0.0419
CTCGGTCC	-0.158
CCAGACAC	-0.021
TCGAATAA	0.0159
CGCCCAAG	0.00152
CACTCTCG	-0.0677
CATTTTCG	0.0498
AAGGGCGT	-0.21
AGGTAACG	0.0176
ATTTTAAG	0.0417
ACCGAGAT	0.0535
TGATTAAA	0.155
ACAGGCTA	-0.0301
GCTAGACA	-0.182
CCTGCGAG	-0.244
GGATAGAA	0.0454
AAGATACC	0.0954
AACCGAAG	-0.105
AGACGTAA	-0.194
CTCCTGAA	0.085
CGGCTGTA	-0.232
GCCCTGCA	-0.131

Sequence	PBM E-score
CGTTCAGC	0.107
ACCGTCAA	-0.117
GAATACGC	0.229
ACTTCCGA	0.0686
CCACCTCC	-0.285
AACTTGGA	0.217
AGGCCCAC	-0.198
AAGCCGAC	0.0763
CCAGCTGG	0.157
TCACCGCA	-0.107
CGTCATAG	-0.0105
GAACATAA	-0.116
GGGATGAC	-0.0542
AGGGCGAC	-0.0863
AACCGCGA	0.0746
AGTAGTGC	-0.194
GCGGAGAC	-0.0251
AGCGCGTG	-0.0626
TCGGGTAA	0.0973
CGGCCTGC	-0.303
GCCTAAAC	0.167
GGCGGCAA	0.154
ATGGCCGA	-0.205
TGACACCA	0.0294
ATTCCACG	0.0676

Sequence	PBM E-score
GTGTCCTA	0.0134
GCGAAGAA	0.0121
GCAACATA	0.0275
AGTGGCGA	0.156
CGGAAGCC	0.451
GTGTCTGA	0.0428
ATGAGGTA	-0.0222
AAGCGGAT	0.114
AAGACGTA	0.0258
GACTAAGA	-0.174
CTAAATTC	-0.0491
CGGTTCAC	-0.155
GGGTACTA	0.081
AACGTTAG	-0.0216
CACTCCTA	-0.103
ATAAAAAA	0.185
CGTGGCGA	0.017
TCCGCACA	-0.15
CGATCCAG	-0.0472
GTTCGGCA	0.014
TAGACTGA	0.00687
CTTCTAAA	0.153
CTTTTCTA	-0.0632
AGGTGGAT	-0.0209
ACGATGAT	-0.0662

Sequence	PBM E-score
ATCAGTTA	0.0177
CGAATCAC	-0.0689
TAATGGAA	0.28
AAAATACC	0.023
AAGACCCC	0.0165
ACGCTGAG	0.104
ACTCACCA	-0.103
AACCTCGA	0.023
CTAAGAGC	0.0904
AGCAAGCT	-0.071
AATCAACC	-0.0152
AGAAGTGC	-0.157
AAAAGTAT	-0.0691
AAGGAACC	0.285
ACGGCGTA	0.0679
GTGTTCTA	0.0443
ATTTGAGA	0.0566
CGCCACCG	-0.174
CAAATCCA	-0.036
CTGTACGA	-0.0931
AGTGTGAG	-0.305
CATGGTTA	0.0382
CGAACCCA	-0.0992
AAACTCTC	-0.251
ATCTCATC	-0.0285

Sequence	PBM E-score
AGCCTCAT	-0.0448
AAGGACTT	-0.182
AATCACCT	-0.0404
AGAGCGGA	-0.0441
GTTTAGGA	0.177
ATTGGCGA	0.0467
CTTGGATA	-0.00334
ACCAGTAG	0.135
AAGGGTCT	-0.322
GTCCCTAA	0.16
CTCGCAAA	-0.0456
GACTGTAC	-0.314
ACCCTCTC	-0.0871
CACCATCG	-0.264
GCACAAAA	0.0313
CCTCTAAA	0.189
AGCATCTC	0.121
ATAAAGGG	0.123
GCCTTGCA	-0.137
ACAATGCC	-0.149
AGCAGAGC	-0.0975
AGGACGTC	0.155
AAAGGATC	0.0868
CGTCATCC	0.0357
CCTGATCA	-0.104

Sequence	PBM E-score
ATAACCCG	-0.25
CATTACGA	0.148
AACGATAA	-0.0612
CCTGGGAA	0.169
ACGGTCAA	-0.174
CCGATTCG	0.0853
CGAACTAA	0.0461
CGCCTGCA	-0.117
ACGGACTG	-0.16
GGTATTAA	-0.083
AGACTGAG	-0.0581
CATTTGTA	-0.0462
CGGACCAC	-0.206
AGGGGCAT	0.042
AAAGTTAC	-0.0856
AAAGACAT	-0.0996
TACAAATA	0.157
AGCCCGCT	-0.0919
ATACGTCG	-0.0142
CGACCATA	-0.0656
CATGTGAG	-0.131
GCGATAAC	-0.14
AAAAACCA	0.128
GGAAATCC	-0.0402
GACGACGA	-0.0324

Sequence	PBM E-score
AACAGATG	0.00176
TTCTTAAA	0.0388
CAGTTAAA	-0.138
AGCCCTCG	-0.228
AACCTAAG	-0.0759
GTCCATGA	0.0119
GCGCGACC	-0.0227
CAGAAGGA	-0.00692
CCGTATGC	-0.241
CAGGAAAA	0.0134
CGCGAGAA	-0.113
CTCGCCTA	0.0109
CACTGTCA	-0.155
ACAAAAAA	0.205
AACTAGGG	0.0287
TACCTAGA	0.0114
AAACAAAA	-0.0284
CCCGCAAA	0.05
CCTTTACA	-0.106
CCACGATA	0.228
AAGGATAC	0.242
CGAGTTCA	0.015
GGGCCTAA	-0.182
ATGTCGTC	-0.0129
ACTTCGCC	0.0237

Sequence	PBM E-score
ATTATGTG	0.0106
AAGGGTTC	-0.00512
ACTTATTG	0.103
AAACTGAA	0.108
ACGACCGG	-0.072
AACAGCCA	0.0692
ACCTCGTG	0.184
CTCTAATA	0.0731
GCACTGTA	-0.19
TAGTATCA	0.0856
GAAAGGAA	0.0552
AGGTGATG	0.0349
CTACATCA	0.00908
CTCTGTTA	-0.0923
CCATGGAA	-0.0196
GTGTGGAA	0.193
AATGACCT	-0.123
ATTGGAAC	0.221
TAACTGTA	-0.219
GCCACGAC	-0.13
AGTTACGC	0.0168
AGTAGAGG	-0.066
AGCGAGAG	-0.17
ATAGACGG	0.0138
CTGACCAG	-0.179

Sequence	PBM E-score
GAAACATC	-0.0203
TCGCAGCA	-0.00799
CCAGATTC	0.326
CACGCCCG	-0.266
ATGTGGAG	0.125
GAATGCCC	-0.0749
ACCTAATC	0.182
AAAGATAT	0.0731
CATAAGGC	-0.141
ATCATTTA	0.0746
GGAAGCAA	-0.107
GACACGGC	-0.105
ATTGCGCG	0.079
CATACAAA	0.195
AACGAGAC	-0.116
AAAATTAG	0.235
AGGTGCTG	0.189
AAACCCTG	0.0111
CCCCAGCG	-0.0838
CACTCGGG	-0.0875
TACCCCAA	0.113
CGAACGTC	-0.0611
AAAGGGTT	-0.0414
AAGTTTAA	0.0946
GACCTGCA	-0.149

Sequence	PBM E-score
ACATACAA	0.0298
CTCACGTA	-0.116
AATACAGT	-0.0143
GTCCTTCA	0.0722
CTCCCAAG	0.0273
ATTAGCCC	-0.106
ATGCCTGA	-0.00644
TCGCATAA	0.0626
GTGATACA	-0.127
AGATTGCC	-0.0983
CGACAATA	0.0972
CATCCGTC	-0.0225
TCCGCGGA	-0.211
TTACATAA	-0.115
CACCCTTC	0.153
CAACAAAA	0.0565
GACTTAGA	-0.143
ACATTGAG	-0.116
CTCCGGAG	0.0113
